Experimental data taken from the supplement of paper PMC4604168 (melanoma cell lines).
This is one part of the list. Many values rest on one well or one pass, so single values are uncertain.

Tested on: IST-MEL1
Test: cell count relative to DMSO control; melanoma cells; higher = more viable cells
Details: library dose: standard library concentration; 72 h
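Also: cells treated in 1,536-well plates, then fixed and DAPI-stained, with nuclei counted from automated high-throughput microscope images.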

Q: With `O=C(Nc1cc(C(F)(F)F)cc(C(F)(F)F)c1)c1cc(Cl)ccc1O` + Nc1ncn([C@H]2C[C@H](O)[C@@H](CO)O2)c(=O)n1 [decitabine] (first compound 0.08 µM, partner dose 0.5 µM) as the compound, how does the cell count read?
A: Its cell count is 68.7%.

Q: For `O=C(O)[C@@H]1[O][Sb](=[O])([O][Sb]2(=[O])[O][C@H]([C@H](O)CO)[C@H](O)[C@H](C(=O)O)[O]2)[O][C@H]([C@H](O)CO)[C@@H]1O` (stereo partly specified) [stibogluconate] + N#Cc1c(O)c2c(-c3ccc(-c4ccccc4O)cc3)csc2[nH]c1=O [A769662] (first compound 10 µM, partner dose 10 µM), which cell count is on record?
A: The cell count was 127%.

Q: `O=C(Nc1ccccc1)c1cc([N+](=O)[O-])ccc1Cl` + Cc1cc([N+](=O)[O-])ccc1NS(=O)(=O)c1cc(Cl)ccc1Cl [FH535] (first compound 10 µM, partner dose 5 µM) was tested. Which cell count did it give?
A: Its cell count is 53.2%.

Q: For `O=C(Nc1cc(C(F)(F)F)cc(C(F)(F)F)c1)c1cc(Cl)ccc1O` + Nc1ccn([C@@H]2O[C@H](CO)[C@@H](O)C2(F)F)c(=O)n1 [gemcitabine] (first compound 0.08 µM, partner dose 0.002 µM), which cell count is on record?
A: Its cell count is 40.5%.

Q: For `O=C(Nc1cc(C(F)(F)F)cc(C(F)(F)F)c1)c1cc(Cl)ccc1O` + C=CCn1c(=O)c2cnc(Nc3ccc(N4CCN(C)CC4)cc3)nc2n1-c1cccc(C(C)(C)O)n1 [MK1775] (first compound 0.08 µM, partner dose 0.1 µM), which cell count is on record?
A: Its cell count is 99.3%.

Q: Which cell count does the source give for `O=C(Nc1cc(C(F)(F)F)cc(C(F)(F)F)c1)c1cc(Cl)ccc1O` + CCCCCCCCCCCC1=C(O)C(=O)C=C(O)C1=O [Embelin] (first compound 0.08 µM, partner dose 6 µM) here?
A: The cell count was 68.5%.

Q: Which cell count does the source give for `Cn1nnc2c(C(N)=O)ncn2c1=O` [temozolomide] + CCN(CC)CCCCNc1ncc2cc(-c3cc(OC)cc(OC)c3)c(NC(=O)NC(C)(C)C)nc2n1 [PD173074] (first compound 10 µM, partner dose 0.5 µM) here?
A: Its cell count is 93.2%.

Q: `O=C(O)[C@@H]1[O][Sb](=[O])([O][Sb]2(=[O])[O][C@H]([C@H](O)CO)[C@H](O)[C@H](C(=O)O)[O]2)[O][C@H]([C@H](O)CO)[C@@H]1O` (stereo partly specified) [stibogluconate] + Nc1ncn([C@H]2C[C@H](O)[C@@H](CO)O2)c(=O)n1 [decitabine] (first compound 10 µM, partner dose 0.5 µM) was tested. Which cell count did it give?
A: The cell count was 72.8%.

Q: `O=C(O)c1ccc2c(c1)nc(Nc1cccc(Cl)c1)c1ccncc12` + C=CCn1c(=O)c2cnc(Nc3ccc(N4CCN(C)CC4)cc3)nc2n1-c1cccc(C(C)(C)O)n1 [MK1775] (first compound 2 µM, partner dose 0.1 µM) was tested. Which cell count did it give?
A: Its cell count is 56.7%.

Q: `O=C(O)c1ccc2c(c1)nc(Nc1cccc(Cl)c1)c1ccncc12` + COc1cc(N2CCC(N3CCN(C)CC3)CC2)ccc1Nc1ncc(Cl)c(Nc2ccccc2S(=O)(=O)C(C)C)n1 [NVP-TAE684] (first compound 2 µM, partner dose 0.4 µM) was tested. Which cell count did it give?
A: Its cell count is 88.3%.

Q: Which cell count does the source give for `O=C(O)c1ccc2c(c1)nc(Nc1cccc(Cl)c1)c1ccncc12` + Cc1cc([N+](=O)[O-])ccc1NS(=O)(=O)c1cc(Cl)ccc1Cl [FH535] (first compound 2 µM, partner dose 5 µM) here?
A: The cell count was 63.7%.

Q: With `O=C(Nc1cc(C(F)(F)F)cc(C(F)(F)F)c1)c1cc(Cl)ccc1O` + Cn1c(Nc2ccc(C(F)(F)F)cc2)nc2cc(Oc3ccnc(-c4ncc(C(F)(F)F)[nH]4)c3)ccc21 [CHIR265] (first compound 0.08 µM, partner dose 0.4 µM) as the compound, how does the cell count read?
A: The cell count was 85.8%.

Q: For `O=C(O)[C@@H]1[O][Sb](=[O])([O][Sb]2(=[O])[O][C@H]([C@H](O)CO)[C@H](O)[C@H](C(=O)O)[O]2)[O][C@H]([C@H](O)CO)[C@@H]1O` (stereo partly specified) [stibogluconate] + COc1cc2ncnc(Nc3ccc(Oc4ccccc4)cc3)c2cc1OC [SrcI1] (first compound 10 µM, partner dose 10 µM), which cell count is on record?
A: Its cell count is 76.3%.

Q: For `O=C(O)c1ccc2c(c1)nc(Nc1cccc(Cl)c1)c1ccncc12` + C#Cc1cccc(Nc2ncnc3cc(OCCOC)c(OCCOC)cc23)c1 [erlotinib] (first compound 2 µM, partner dose 4 µM), which cell count is on record?
A: Its cell count is 70.3%.

Q: Which cell count does the source give for `Cc1cc(N2CCOCC2)cc2[nH]c(-c3c(NC[C@@H](O)c4cccc(Cl)c4)cc[nH]c3=O)nc12` + Oc1cc(-c2nc(-c3ccccc3)[nH]c2-c2ccncc2)ccc1Cl [L779450] (first compound 1 µM, partner dose 1 µM) here?
A: Its cell count is 87.8%.

Q: With `O=C(O)[C@@H]1[O][Sb](=[O])([O][Sb]2(=[O])[O][C@H]([C@H](O)CO)[C@H](O)[C@H](C(=O)O)[O]2)[O][C@H]([C@H](O)CO)[C@@H]1O` (stereo partly specified) [stibogluconate] + O=S(=O)(c1ccccc1)N(CC(F)(F)F)c1ccc(C(O)(C(F)(F)F)C(F)(F)F)cc1 [T0901317] (first compound 10 µM, partner dose 7 µM) as the compound, how does the cell count read?
A: Its cell count is 111%.

Q: For `O=C(O)[C@@H]1[O][Sb](=[O])([O][Sb]2(=[O])[O][C@H]([C@H](O)CO)[C@H](O)[C@H](C(=O)O)[O]2)[O][C@H]([C@H](O)CO)[C@@H]1O` (stereo partly specified) [stibogluconate] + Cn1cncc1[C@@](N)(c1ccc(Cl)cc1)c1ccc2c(c1)c(-c1cccc(Cl)c1)cc(=O)n2C [tipifarnib] (first compound 10 µM, partner dose 0.05 µM), which cell count is on record?
A: The cell count was 84%.

Q: Which cell count does the source give for `O=C(Nc1cc(C(F)(F)F)cc(C(F)(F)F)c1)c1cc(Cl)ccc1O` + COc1ccc(COc2ccc(Cc3cnc(N)nc3N)cc2OC)cc1 [GW2580] (first compound 0.08 µM, partner dose 5 µM) here?
A: Its cell count is 89.6%.

Q: For `O=C(Nc1cc(C(F)(F)F)cc(C(F)(F)F)c1)c1cc(Cl)ccc1O` + Cc1cc([N+](=O)[O-])ccc1NS(=O)(=O)c1cc(Cl)ccc1Cl [FH535] (first compound 0.08 µM, partner dose 5 µM), which cell count is on record?
A: Its cell count is 63.6%.

Q: Which cell count does the source give for `O=C(Nc1cc(C(F)(F)F)cc(C(F)(F)F)c1)c1cc(Cl)ccc1O` + Cn1cc(/C=C2\C(=O)Nc3cccnc32)c2ccccc21 [GW441756] (first compound 0.08 µM, partner dose 2 µM) here?
A: The cell count was 98.5%.

Q: How did the cell count turn out when `O=C(O)c1ccc2c(c1)nc(Nc1cccc(Cl)c1)c1ccncc12` + CCc1ccc(CCOc2ccc(CC3SC(=O)NC3=O)cc2)nc1 [pioglitazone] (first compound 2 µM, partner dose 10 µM) was run?
A: The cell count was 81.5%.

Q: How did the cell count turn out when `Cc1cc(N2CCOCC2)cc2[nH]c(-c3c(NC[C@@H](O)c4cccc(Cl)c4)cc[nH]c3=O)nc12` + CC(C)CCN1c2nc(Nc3cc(F)c(O)c(F)c3)ncc2N(C)C(=O)C1C [BID1870] (first compound 1 µM, partner dose 1 µM) was run?
A: The cell count was 88.4%.

Q: How did the cell count turn out when `O=C(Nc1ccccc1)c1cc([N+](=O)[O-])ccc1Cl` + COc1ccc(-c2ccc3c(N4CCOCC4)nc(N4C[C@@H](C)O[C@@H](C)C4)nc3n2)cc1CO [KU0063794] (first compound 10 µM, partner dose 0.1 µM) was run?
A: The cell count was 97.7%.

Q: `O=C(O)c1ccc2c(c1)nc(Nc1cccc(Cl)c1)c1ccncc12` + O=c1cc(-c2cccc3c2Sc2ccccc2S3)oc(N2CCOCC2)c1 [KU55933] (first compound 2 µM, partner dose 5 µM) was tested. Which cell count did it give?
A: Its cell count is 79.2%.

Q: For `O=C(O)c1ccc2c(c1)nc(Nc1cccc(Cl)c1)c1ccncc12` + c1cc(-c2cnn3cc(-c4ccc(OCCN5CCCCC5)cc4)cnc23)ccn1 [Dorsomorphin] (first compound 2 µM, partner dose 2 µM), which cell count is on record?
A: Its cell count is 83.6%.

Q: With `Cn1nnc2c(C(N)=O)ncn2c1=O` [temozolomide] + Cc1cc([N+](=O)[O-])ccc1NS(=O)(=O)c1cc(Cl)ccc1Cl [FH535] (first compound 10 µM, partner dose 5 µM) as the compound, how does the cell count read?
A: The cell count was 63.5%.

Q: Which cell count does the source give for `O=C(Nc1cc(C(F)(F)F)cc(C(F)(F)F)c1)c1cc(Cl)ccc1O` + COc1ccc2c(c1)CCC1C2CCC2(C)C(NCCCCCCN3C(=O)C=CC3=O)CCC12 [U73122] (first compound 0.08 µM, partner dose 2 µM) here?
A: Its cell count is 94.8%.

Q: How did the cell count turn out when `Cc1cc(N2CCOCC2)cc2[nH]c(-c3c(NC[C@@H](O)c4cccc(Cl)c4)cc[nH]c3=O)nc12` + Oc1nc(-c2ccc(C(F)(F)F)cc2)nc2c1CSCC2 [XAV939] (first compound 1 µM, partner dose 10 µM) was run?
A: The cell count was 96.6%.

Q: With `O=C(Nc1cc(C(F)(F)F)cc(C(F)(F)F)c1)c1cc(Cl)ccc1O` + CC(=O)O[C@@]12CO[C@@H]1C[C@H](O)[C@@]1(C)C(=O)[C@H](O)C3=C(C)[C@@H](OC(=O)[C@H](O)[C@@H](NC(=O)OC(C)(C)C)c4ccccc4)C[C@@](O)([C@@H](OC(=O)c4ccccc4)[C@H]21)C3(C)C [Docetaxel] (first compound 0.08 µM, partner dose 0.0005 µM) as the compound, how does the cell count read?
A: Its cell count is 38.6%.

Q: With `O=C(Nc1ccccc1)c1cc([N+](=O)[O-])ccc1Cl` + O=S(=O)(c1ccccc1)N(CC(F)(F)F)c1ccc(C(O)(C(F)(F)F)C(F)(F)F)cc1 [T0901317] (first compound 10 µM, partner dose 7 µM) as the compound, how does the cell count read?
A: The cell count was 90.7%.

Q: Which cell count does the source give for `O=C(Nc1cc(C(F)(F)F)cc(C(F)(F)F)c1)c1cc(Cl)ccc1O` + CCc1ccc(CCOc2ccc(CC3SC(=O)NC3=O)cc2)nc1 [pioglitazone] (first compound 0.08 µM, partner dose 10 µM) here?
A: The cell count was 92.8%.
